The values below come from patent CN115677858A (HEFEI HANKEMAB BIOTECHNOLOGY CO LTD; ANHUI ANKE …, dated 2023).

The target in experiment [1] is T1, 人CD137全长 (SEQ ID No.19)，表达于细胞 (human, UniProt Q07011 24-255).
T1 construct: The full-length entry was transfected into CHO-K1 cells for FACS and into HEK293 cells for the reporter assay; also called CHO-K1/hCD137; 细胞表面人CD137
Briefly: flow cytometry (FACS) on CHO-K1/hCD137 cells, goat anti-human FITC; antibody at 250 nM.

Experiment [2] deals with T2, 人PD-L1胞外段 (SEQ ID No.22 第19-238位)，带His标签 (human, UniProt Q9NZQ7 partial chain).
T2 construct: It may be the same preparation as m7; not shown: His tag
Kind of experiment: bridging ELISA: human PD-L1-His coated, bispecific antibody, then human CD137-mouse Fc, goat anti-mouse HRP. For orientation: An ELISA detects its analyte on a solid surface through an enzyme-linked reagent.

The target in experiment [3] is T3, 人PD-L1全长 (SEQ ID No.22)，表达于CHO-K1细胞 (human, UniProt Q9NZQ7).
T3 construct: The full-length entry was transfected; also called CHO-K1/hPD-L1; 细胞表面人PD-L1
Briefly: flow cytometry (FACS) on CHO-K1/hPD-L1 cells, goat anti-human FITC. Background: A flow cytometer gives signals particle by particle.

Experiment [4] has as its target T4, 人PD-L1胞外段 (SEQ ID No.22 第19-238位) (human, UniProt Q9NZQ7 partial chain).
T4 construct: also called 人PD-L1抗原
Kind of experiment: ELISA, human PD-L1 extracellular domain coated, goat anti-human HRP.

In experiment [5] the target is T1, 人CD137全长 (SEQ ID No.19)，表达于细胞. Kind of experiment: flow cytometry (FACS) on CHO-K1/hCD137 cells, goat anti-human FITC; antibody at 9.259259259 nM.
The target is the same in experiment [6]. Briefly: flow cytometry (FACS) on CHO-K1/hCD137 cells, goat anti-human FITC; antibody at 0.342935528 nM.
Experiment [7] shares this target. Kind of experiment: flow cytometry (FACS) on CHO-K1/hCD137 cells, goat anti-human FITC; antibody at 3.086419753 nM.
For experiment [8] the target is unchanged. Briefly: flow cytometry (FACS) on CHO-K1/hCD137 cells, goat anti-human FITC; antibody at 83.33333333 nM.
Experiment [9] has the same target. Kind of experiment: flow cytometry (FACS) on CHO-K1/hCD137 cells, goat anti-human FITC; antibody at 27.77777778 nM.
Experiment [10] has the same target. Briefly: flow cytometry (FACS) on CHO-K1/hCD137 cells, goat anti-human FITC; 4-parameter logistic fit.
For experiment [11] the target is unchanged. Kind of experiment: flow cytometry (FACS) on CHO-K1/hCD137 cells, goat anti-human FITC; antibody at 1.028806584 nM.

T1 sequence (Q07011 24-255 limits assumed): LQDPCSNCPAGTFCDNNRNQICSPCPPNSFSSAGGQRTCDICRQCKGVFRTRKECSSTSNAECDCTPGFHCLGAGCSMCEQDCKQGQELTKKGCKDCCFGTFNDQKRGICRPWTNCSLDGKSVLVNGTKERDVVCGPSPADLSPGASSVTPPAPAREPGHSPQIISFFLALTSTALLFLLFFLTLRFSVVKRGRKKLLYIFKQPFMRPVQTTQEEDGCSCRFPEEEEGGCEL

B1: 抗人PD-L1/CD137双特异性抗体 结构A (1st scFv-L1-Fc-L2-2nd scFv) (bispecific antibody, human IgG4 S228P, F234A L235A)
chain: DIQMTQSPSSLSASLGDRVTISCSASQGISNYLNWYQQKPDGTVKLLIYYTSTLHSGVPSRFSGSGSGTDYTLTISSLQPEDIATYYCQQYSKLPWTFGCGTKLEIKGGGGSGGGGSGGGGSGGGGSQVQLQESGPGLVKPSETLSLTCTVSGSSLTSYGVHWVRQPPGKCLEGLGVIWPGGSTNYNSALMSRVTISKDNSKSQVSLKMSSLTAADTAVYYCARVTGTWYFDVWGQGTTVTVSSGGGGSGGGGS[human IgG4 Fc with S228P F234A L235A (EU numbers) not shown]GGGSGGGGSGGGGSDIQMTQSPSTLSASVGDRVTITCQSSQNVYSNNRLSWYQQKPGKAPKLLIYWTSFLASGVPSRFSGSGSGTEFTLTISSLQPDDFATYYCAGGYSGNLYTFGCGTKLEIKGGGGSGGGGSGGGGSGGGGSDVQLVESGGGLVQPGGSLRLSCTVSGIDLSSYDMTWVRQAPGKCLEYIGYISYVSRTYYADSVKGRFTISKDTSKNTVYLQMNSLRAEDTAVYYCARDRPDGAATNLWGQGTLVTVSS
notes: Two identical chains: anti-CD137 scFv, (G4S)2, human IgG4 Fc, (G4S)3, anti-PD-L1 scFv; Expressed in Expi293 cells; also called A结构
One may read the EC50 as the midpoint of the concentration-response curve. Low values mean a more potent agent, high ones a less potent agent. Consider B1, for which the “FACS signal (read-out name not given)” value in [1] worked out at 14200; in experiment [5], 6790; in [6], 2660; in [7] it was 3720; in experiment [8], 14000; in experiment [9] it was 11100. In experiment [11], the “FACS signal (read-out name not given)” value stood at 2960. In addition, the binding result in [2], in [3] and in experiment [4] was “binds” in each case. The molecule also registered an EC50 in experiment [10] of 14.6 nM.
